Measurements reported in the supplement of paper PMC3334620.
Over roughly 33,000 sequences, “E-score (-0.5 to 0.5)” has its median near -0.04; the highest 2% begin near 0.36. This is one part of the list.

These sequences were tested against T1, Hmlalpha2 (UniProt P0CY09) (assay: PBM E-score (8-mer binding enrichment) (E-score (-0.5 to 0.5)); higher = stronger / more preferred TF binding; most listed sequences are background and not binding sites). Details: protein concentration: 200 nM; construct: GST-full length.
T1 sequence: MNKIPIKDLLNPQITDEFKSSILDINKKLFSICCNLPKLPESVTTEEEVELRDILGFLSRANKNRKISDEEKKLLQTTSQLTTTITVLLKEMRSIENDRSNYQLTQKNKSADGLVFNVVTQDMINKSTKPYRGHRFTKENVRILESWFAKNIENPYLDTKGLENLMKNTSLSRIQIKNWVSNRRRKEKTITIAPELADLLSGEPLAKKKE
Procedure, shortened: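 PURExpress in vitro transcription/translation supplied GST-tagged yeast transcription factors, either full-length or DNA-binding domain. Applied at about 100-200 nM to universal all-10-mer Agilent arrays double-stranded by primer extension, the bound protein was detected with fluorescent anti-GST. E-scores, modified Wilcoxon-Mann-Whitney statistics, were given by the Universal PBM Analysis Suite to ungapped eight-base words pooled with their reverse complements after masliner normalisation.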

Sequence	PBM E-score
ACCAACGC	0.0354
AGGATAAA	0.0806
AATTCGCG	0.123
AGGAAACA	0.151
GTATTCTA	0.27
ATTGTTAG	0.0804
CTGATGGC	-0.211
AATCAGCA	0.159
ACAACATA	0.382
GACGACCA	-0.102
AACGCTCA	0.0165
CCTGCCCC	-0.338
CCACTTAG	-0.0026
CTATTATC	0.113
CTCTAAGA	-0.0651
GACTCAAA	-0.114
CAATCTGC	-0.0469
CAGCGTCC	-0.0516
GATGAGTA	0.203
CAAACACC	-0.0563
ATTCCGGC	-0.07
GTGGCTGA	-0.248
GTAGGGAA	0.0519
GTCTTACA	0.347
ACAGCTTC	-0.0584

Sequence	PBM E-score
CAAAACCA	0.0675
ATAAGTGC	-0.201
GAATCTTA	-0.127
AAAACCTG	-0.037
GATTCACA	0.215
GTCTCAAA	-0.0447
CCCTCGTC	-0.218
CGTCCTGA	-0.218
CTCAAAAC	0.0559
CGGGATGA	-0.211
CAGTTTAG	-0.0949
CAAACCTC	-0.185
AGAGTCGG	-0.129
TCTACGCA	0.353
GAACTCGA	-0.0139
AGAAAAGA	-0.0803
CACCAATG	-0.0695
AACCCGTG	-0.114
AACTTGCC	0.0815
CGAAGTTC	-0.0934
AAAAATCT	0.145
AATAGTGG	0.14
TCTAAGCA	-0.0643
GGATGTGA	0.0213
GCAACCGA	-0.29

Sequence	PBM E-score
GAACCCGC	-0.25
AACGAGGA	0.0594
AGAGTTAA	0.166
CGGTCGGC	-0.275
GGAATTCC	-0.383
ATAATCCC	-0.0295
AAGTCACG	-0.162
ATAACCAA	0.0665
CAAAATCC	0.0149
AGCCACAA	-0.138
AGTTTAGC	-0.056
CAGTTTAC	0.231
AATGCACG	0.171
GACCTCGC	-0.148
GAAGACAC	0.0337
CCGATGGA	-0.256
CGTTTAAA	0.258
ATGCGTTA	0.326
ATACGGAG	-0.0902
ATTTCGAG	0.00649
CGTAGTAG	0.0765
AATAGCAA	0.165
CGTAGCGC	-0.195
GAATCGCA	-0.172
GCTTCTTA	0.0403

Sequence	PBM E-score
ACCGATAC	-0.0475
ACAAGACA	0.3
AGGGGCAG	-0.228
AAAAGCAA	0.197
ATTGGTAG	0.0446
ATCCCGAC	0.00533
GGTAAGTA	0.162
GCCGTAGA	0.065
CCTGACTA	0.191
TGAAGCAA	0.0475
ATAATCTC	0.0435
ATGCCTAC	-0.224
GTTTGTCA	0.118
AGAATTAG	-0.0744
AATCGAGA	-0.0158
ATCGTTAG	0.00138
CCGCGCTC	-0.0506
AACCTGCT	-0.164
CATTTACG	0.303
GGTCTTTA	0.161
ATGCGAAC	0.0438
CCGCGAAG	-0.274
AATTGTAG	0.0979
AAAAGCGG	-0.174
AGTGTCCA	0.0827

Sequence	PBM E-score
CGACGCCA	-0.124
AAGACAGG	0.00086
ACCTCGAT	-0.157
GAGAGTCC	-0.394
CTTTATGA	-0.0961
AAATAAAG	-0.0863
ATCACGAA	0.0229
AGCACAGG	-0.115
CGACTAAA	-0.141
TCACTAAA	0.0546
AGAACTGC	-0.0301
AGATCACG	-0.00459
GACAGTTA	-0.0426
TCCGCGAA	0.0828
AGCTTAGG	-0.136
CCGGTCCA	-0.278
CAGGTCCG	-0.213
ACCTAGAC	-0.203
AGTAGGTC	-0.0261
CCAGGTGC	-0.17
AGGTCCCA	-0.23
AGTAGGAA	-0.0598
CGGGGGAA	-0.188
CTCACCTA	-0.0554
CACGTTTA	0.298

Sequence	PBM E-score
GGTGTGCA	-0.155
TACTCCTA	0.0754
GTGAACCA	0.181
CTAGTTCC	0.105
CTCCAAAC	-0.0262
GTCATAGA	-0.121
CCGTGAAG	-0.231
ACGTACAT	0.381
ATTGGTGG	-0.0956
CATCGGTA	-0.217
CTTAATCC	-0.244
GGGGTGAA	-0.218
GCAGTCCC	-0.267
CTTTCTGC	0.00433
GTTCTTAA	0.0993
AACTATAG	-0.096
CAGAATCA	0.0871
GGTGCACC	-0.0854
CTCGACCA	-0.163
AATTGGAC	0.0202
CCATGCGC	-0.114
AGGACCCA	-0.338
GGCTACGA	0.00875
ACGCAGTC	0.0216
CATCATCC	-0.0906

Sequence	PBM E-score
CCTAGTAA	0.109
AATGTACA	0.366
ATTGCTCG	-0.134
CTTTCAAA	-0.00235
CCGTCTAC	0.0117
CACGCCTC	0.0108
CCGAGGCA	-0.191
GCACTTAA	0.182
GCCGAATA	0.0197
AAACGGAT	0.125
ACCTGACT	0.0498
AAATCGGC	-0.196
AGCAACCA	-0.101
CGGTGACC	-0.224
AGTATTAG	0.0572
AAAAACCT	0.0567
CTGCCCGA	-0.0567
AAAGGGTA	0.136
AAGCGCCC	-0.344
CAAGGGGA	-0.0247
CGAGTCTA	-0.175
TCAAATCA	0.113
